Laboratory results from CN101205255A (SHANGHAI ZHONGXIN GUOJIAN PHAR, dated 2008).

Target: T1, human CD20 antigen on Raji cells (human, UniProt P11836 1-297)
T1 construct: whole, on cells; also called CD20抗原; Raji细胞
T1 sequence (looked up): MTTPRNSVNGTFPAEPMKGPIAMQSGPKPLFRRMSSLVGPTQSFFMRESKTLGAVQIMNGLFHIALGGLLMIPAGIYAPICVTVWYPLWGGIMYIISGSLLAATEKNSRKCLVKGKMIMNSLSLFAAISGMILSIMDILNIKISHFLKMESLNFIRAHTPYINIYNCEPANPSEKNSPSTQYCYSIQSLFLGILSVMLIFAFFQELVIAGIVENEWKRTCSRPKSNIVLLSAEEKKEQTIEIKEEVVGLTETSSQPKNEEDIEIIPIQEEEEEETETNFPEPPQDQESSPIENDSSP
Experiment: dissociation from Raji cells, FITC-labelled antibody 10 μg/ml, 37°C, flow cytometry over time

B1: anti-CD20 tetravalent antibody C2B8(ScFvHL)4-Fc (Fc fusion)
chain: QVQLQQPGAELVKPGASVKMSCKASGYTFTSYNMHWVKQTPGRGLEWIGAIYPGNGDTSYNQKFKGKATLTADKSSSTAYMQLSSLTSEDSAVYYCARSTYYGGDWYFNVWGAGTTVTVSAGGGGSGGGGSGGGGSQIVLSQSPAILSASPGEKVTMTCRASSSVSYIHWFQQKPGSSPKPWIYATSNLASGVPVRFSGSGSGTSYSLTISRVEAEDAATYYCQQWTSNPPTFGGGTKLEIKRASTGSQVQLQQPGAELVKPGASVKMSCKASGYTFTSYNMHWVKQTPGRGLEWIGAIYPGNGDTSYNQKFKGKATLTADKSSSTAYMQLSSLTSEDSAVYYCARSTYYGGDWYFNVWGAGTTVTVSAGGGGSGGGGSGGGGSQIVLSQSPAILSASPGEKVTMTCRASSSVSYIHWFQQKPGSSPKPWIYATSNLASGVPVRFSGSGSGTSYSLTISRVEAEDAATYYCQQWTSNPPTFGGGTKLEIKREFAAA[human IgG1 Fc with C220P (EU numbers) cut from this listing]
notes: Expressed in CHO cells, Protein A purified; FITC-labelled in some assays; also called C2B8(ScFvHL) 2 Fc (the single chain); C2B8的四价抗体
- binding result: binds
